Test results published in PubChem BioAssay AID1345083 (National Center for Advancing Translational Sciences (NCATS), 2018).
Several values for one entry are separate records, joined by “and”; a condition that tells them apart may be missing. Identical values can stand only once. About 6,200 (6.6%) of roughly 94,000 compounds were called active. This list was built around the results that the source calls inconclusive (neither active nor inactive); the mix of calls is not that of the screen. Calls come from the whole dose curve; as a rule, active = well fitted inhibition curve with a large enough effect; inconclusive = small, poorly fitted or top-dose-only effect; inactive = flat fitted curve, though single readings scatter. Potencies of inconclusive entries are doubtful fits and often do not repeat.

experiment: Cytotoxic Profiling in HEK 293 Cell Line of Diverse Libraries Using Quantitative High-Throughput Screening; settings: HEK 293 viability, ATP luminescence (CellTiter-Glo), 48-72 h; activity change, negative = cytotoxicity: at 115 µM (top of the series) unless noted; series mostly up to 115 µM; note: nearly all actives have a fitted effect of over 60% in size
Procedure, shortened: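 Pintool-delivered compounds were incubated with HEK 293 cells (250 cells/well) at 37 degree Celsius for 48 or 72 hr. ATP-dependent luminescence (CellTiter-Glo) then reported remaining viable cells.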
% is set by controls: 0 for no effect and ±100 for the full control effect; potency is the fitted concentration of half-maximal effect; tags give direction and shape of the fitted curve.

Row | SMILES | activity change, negative = cytotoxicity | Potency | outcome
1 | CCOC(=O)c1nn(Cc2ccc(OC)cc2)c2c1CN(C(=O)c1ccc3nc[nH]c3c1)CC2 | inactive: -3.47% | – | –
2 | CCOC(=O)C1CCN(C(=O)c2cccc3c2CCN3C(=O)Nc2ccccc2)CC1 | – | inconclusive: 44.7 µM [inhibitor, partial curve, poor fit] | –
3 | COc1cccc(S(=O)(=O)N2CCOCCNC(=O)[C@@H]3CCC[C@@H]32)c1 | – | – | inactive
4 | CC(c1ccc(-c2cc(N3CCN(C)CC3)nc(N)n2)cc1)N1CCOCC1 (stereo not given) | – | inconclusive: 28.2 µM [inhibitor, full curve] | –
5 | Cc1cc(=O)n(CC(=O)Nc2ccc(C)c(C)c2)c(N2CCC(C)CC2)n1 | – | inconclusive: 15.8 µM [inhibitor, full curve, poor fit] | –
6 | CCCOC(=O)N1CCCC(C(=O)Nc2ccccc2-c2ccc(OC)cc2)C1 (stereo not given) | – | inconclusive: 50.1 µM [inhibitor, partial curve, poor fit] | –
7 | COc1ccc(C[C@H](NC(=O)C2=C[C@@H](NS(=O)(=O)c3cccs3)[C@@H](O)[C@H](O)C2)C(N)=O)cc1 | inactive: 0.109% | – | –
8 | CC1(C)[C@H]2CC[C@@H](CNC(=O)c3ccccc3)[C@@H]1C2 | – | inconclusive: 126 µM [inhibitor, single point] | –
9 | Cc1nn(-c2ccc(C(C)(C)C)cc2)c(C)c1[C@@H]1C=C[C@@H](NC(=O)c2ccc(N(C)C)cc2)C1 | – | inconclusive: 8.91 µM [inhibitor, full curve, poor fit] | –
10 | Cn1ncc2c(C(=O)NCc3cccc(C(F)(F)F)c3)cc(-c3ccccc3C(F)(F)F)nc21 | – | inconclusive: 20 µM [inhibitor, full curve, poor fit] | –
11 | COc1cc(CN2CCC3(Cc4ccccc4CNC3=O)C2)cc(OC)c1 (stereo not given) | – | inconclusive: 79.4 µM [inhibitor, partial curve, poor fit] | –
12 | O=C(CN1C(=O)NC(c2ccccc2Cl)C2=C1COC2=O)Nc1ccc(Cl)cc1 (stereo not given) | – | inconclusive: 50.1 µM [inhibitor, partial curve, poor fit] | –
13 | CCc1nn(-c2ccccc2)c(Oc2ccc(C)cc2)c1CCC(=O)N1CCSCC1 | – | active: 39.8 µM | –
14 | CN1C(=O)C(CC(=O)N2CCN(Cc3cccc(Cl)c3)CC2)=C2CCCCC21 (stereo not given) | – | inconclusive: 89.1 µM [inhibitor, single point] | –
15 | Cn1cc(-c2cn[nH]c2)c2nc(COc3ccccc3)cn2c1=O | – | inconclusive: 70.8 µM [inhibitor, partial curve] | –
16 | Cc1nc(CC2CCN(c3nccc(-c4cccnc4)n3)CC2)no1 | – | inconclusive: 89.1 µM [inhibitor, single point] | –
17 | O=C(Nc1cccnc1)c1ccc2c(c1)OCCN(Cc1ncccn1)C2 | – | inconclusive: 126 µM [inhibitor, single point] | –
18 | Cc1c(Cl)c(C(=O)N2CCn3nc(Cc4ccccc4)cc3C2)nn1C | – | inconclusive: 89.1 µM [inhibitor, single point] | –
19 | CCOC(=O)[C@@H]1CN(C(=O)c2ccc3c(c2)OCCCO3)[C@H]2c3cccc(F)c3O[C@@H]12 | – | inconclusive: 89.1 µM [inhibitor, single point] | –
20 | O=C(NC1CCN(Cc2cccc(-c3cccs3)c2)CC1)c1ccccc1 | – | inconclusive: 35.5 µM [inhibitor, full curve, poor fit] and active: 35.5 µM | –

Row | SMILES | activity change, negative = cytotoxicity | Potency | outcome
21 | O=C(CN1C(=O)C(c2ccccc2)=NC12CCCCC2)NC1CCCCC1 | – | inconclusive: 50.1 µM [inhibitor, partial curve, poor fit] | –
22 | O=C(CCC1CCN(S(=O)(=O)c2ccccc2)CC1)NCc1cccs1 | – | inconclusive: 79.4 µM [inhibitor, single point] | –
23 | Cc1cccc(CNC(=O)[C@@]23CCCC[C@H]2N(C)C(=O)CC3)c1 | inactive: -2.38% | – | –
24 | O=C1CC(c2ccccc2)N(Cc2cn[nH]c2-c2ccc(F)cc2)CCCCCN1 (stereo not given) | – | inconclusive: 35.5 µM [inhibitor, partial curve, poor fit] | –
25 | COc1ccc(-c2nc(C3CC3)nc3c2CCN([S+](=O)([O-])c2c(C)noc2C)CC3)cc1 | inactive: -29.4% | – | –
26 | Cc1nn(-c2ccccc2)c2c1C(C1CC1)N(C1CCN(Cc3cccs3)CC1)C2=O (stereo not given) | – | inconclusive: 50.1 µM [inhibitor, partial curve, poor fit] | –
27 | COc1ccc(C2(C(=O)N3CCCC(c4[nH]ccc4C(N)=O)C3)CC2)cc1 (stereo not given) | – | inconclusive: 11.2 µM [inhibitor, full curve, poor fit] | –
28 | CNC(=O)[C@@H]1C[C@H](Oc2ccccc2)CN1S(=O)(=O)Cc1ccccc1 | – | inconclusive: 79.4 µM [inhibitor, partial curve] | –
29 | CCCC(C)N1CC2(CCN(C(=O)c3cc(Cl)ccc3C)CC2)OC1=O (stereo not given) | – | inconclusive: 89.1 µM [inhibitor, single point] | –
30 | Cn1ncc2c(C(=O)NCc3ccccn3)cc(-c3ccsc3)nc21 | – | inconclusive: 100 µM [inhibitor, partial curve] | –
31 | CN(C)C(=O)c1cccn2nccc12 | – | – | inactive [at 230 µM]
32 | Cc1ccc(C2=NC3(CCN(C(=O)c4ccc5c(c4)OCO5)CC3)ON2)cc1 | – | inconclusive: 39.8 µM [inhibitor, partial curve] | –
33 | Cc1noc(C)c1-c1cc2c(cc(-c3ccccc3)n2C)c(-c2cnn(C)c2)n1 | – | active: 20 µM | –
34 | COc1ccc(C2(C(=O)N3CC(c4noc(COc5ccc(F)cc5)n4)C3)CC2)cc1 | – | inconclusive: 50.1 µM [inhibitor, partial curve, poor fit] | –
35 | CCN1c2cc(C(=O)Nc3ccccc3C)ccc2C(=O)N2CCCCCC21 (stereo not given) | – | inconclusive: 56.2 µM [inhibitor, single point] | –
36 | Cn1ncc2c(C(=O)NCc3ccc(F)c(F)c3)cc(-c3ccsc3)nc21 | – | inconclusive: 50.1 µM [inhibitor, partial curve, poor fit] | –
37 | CCc1ccccc1NC(=O)Cn1cccc1-c1nc(-c2ccc(OC)c(F)c2)no1 | inactive: -5.78% | – | –
38 | CCN1C(=O)C2(CCN(S(=O)(=O)c3ccc(F)c(C)c3)CC2)c2ccccc21 | – | inconclusive: 50.1 µM [inhibitor, partial curve, poor fit] | –
39 | COc1ccccc1-c1ccc(CN2CCC(N[S+](=O)([O-])c3ccccc3)C2)cc1 (stereo not given) | – | active: 35.5 µM | –
40 | O=C(NCc1ccccn1)c1ccc(Cn2ccn3nc4c(c3c2=O)CCCC4)cc1 | – | inconclusive: 56.2 µM [inhibitor, partial curve, poor fit] | –

Row | SMILES | activity change, negative = cytotoxicity | Potency | outcome
41 | COCCn1c(C)cc(C(=O)NCC(=O)N2CCCCCNC(=O)CC2c2ccccc2)c1C (stereo not given) | – | – | inactive
42 | O=C(Cc1cccc(Cl)c1)N1CCC2(C1)C(=O)N(CCc1ccccc1)c1ccccc12 (stereo not given) | – | active: 25.1 µM and active: 31.6 µM | –
43 | O=C(CNC(=O)c1cccc(-c2ccc(C(F)(F)F)cc2)c1)NCC(F)F | – | inconclusive: 39.8 µM [inhibitor, partial curve, poor fit] | –
44 | O=C(NCCc1ccccc1F)c1ccc2nnc(-c3cccnc3)n2c1 | inactive: -28.7% | – | –
45 | COc1ccc(-c2nc(C)nc3c2CCN(CC2CCCCC2)CC3)cc1 | – | inconclusive: 89.1 µM [inhibitor, single point] | –
46 | CCN1CCN(Cc2cc3ccc(C)cc3nc2-c2ccc(OC)c(OC)c2)CC1 | – | inconclusive: 89.1 µM [inhibitor, partial curve, poor fit] | –
47 | CN(c1ccccc1)c1cc(=O)c2ccnc(NC3CCOCC3)c2o1 | – | inconclusive: 63.1 µM [inhibitor, full curve] | –
48 | COc1cccc(-c2cc3c(=O)n(CCNC(=O)c4cc(Cl)ccc4F)ccn3n2)c1 | – | inconclusive: 89.1 µM [inhibitor, partial curve, poor fit] | –
49 | COc1ccc(OCC(=O)N2CCC3(CC2)C(=O)NCCN3C)cc1 | – | inconclusive: 89.1 µM [inhibitor, single point] | –
50 | O=C(NCc1ccc(F)cc1)c1nc(-c2ccc(F)cc2)c2ccccn12 | – | inconclusive: 89.1 µM [inhibitor, single point] | –
51 | CC1CCCN(C(=O)c2cc(-c3cnn(CCO)c3)nc3cc(Cl)ccc23)C1 (stereo not given) | – | inconclusive: 39.8 µM [inhibitor, full curve, poor fit] | –
52 | O=C(c1ccccc1)N1CCN(C(=O)c2nnn3c2COC(c2ccc(Cl)cc2)C3)CC1 (stereo not given) | – | inconclusive: 50.1 µM [inhibitor, partial curve, poor fit] | –
53 | CC(=O)N1CCC(Cc2ccc(C(=O)NCc3cn[nH]c3C)cc2)CC1 | – | inconclusive: 50.1 µM [inhibitor, partial curve, poor fit] | –
54 | CC1(c2ccccc2)N(Cc2ccccc2C#N)C(=O)OC12CCN(Cc1c[nH]c3ccccc13)CC2 (stereo not given) | – | active: 14.1 µM | –
55 | Cc1nc(N2CCC(NC(=O)Cc3cccs3)CC2)cc(C(F)(F)F)n1 | – | inconclusive: 89.1 µM [inhibitor, single point] | –
56 | O=C(NCC1CCCO1)c1ccnc(-c2nnc3ccc(Nc4ccccc4)nn23)c1 (stereo not given) | – | inconclusive: 100 µM [inhibitor, partial curve] | –
57 | Cc1ccc(C(=O)Nc2ccc(C(O)[C@H]3COCC(=O)N3Cc3ccccc3F)cc2)cc1 (stereo not given in full) | – | inconclusive: 50.1 µM [inhibitor, partial curve, poor fit] | –
58 | Cn1ncc2c(C(=O)Nc3cccc(Cl)c3)cc(C(C)(C)C)nc21 | – | active: 63.1 µM | –
59 | COc1ccc(Cc2nc3nccc(-c4ccc5c(c4)OCCCO5)n3n2)cc1 | – | inconclusive: 39.8 µM [inhibitor, full curve] | –
60 | COc1ccc(-c2cc(C[C@H]3CNCC[C@H]3CC(=O)NC(C)(C)C)no2)cc1 | – | inconclusive: 126 µM [inhibitor, single point] | –
